Test results from the supplement of paper PMC8047034.
Counter-ions that a name gives are not always drawn. Some of the results follow. Single values are uncertain, as repeats are few or missing.

Each compound was assayed on Ov4Carbo (assay: log2 surviving fraction (library drug vs vehicle, or drug + carboplatin vs carboplatin alone; relative to plate median); ovarian cancer lines: OVCAR4 is platinum-sensitive and Ov4Carbo platinum-resistant; higher = more cell survival). Details: library drug concentration 10 µM; 7 days; carboplatin co-treatment 5 µM.

SMILES | log2 surviving fraction
O=C(NC(Cc1cc(=O)[nH]c2ccccc12)C(=O)O)c1ccc(Cl)cc1 (stereo not given) [Rebamipide] | -0.919
O=C1NC(=O)C(c2ccccc2)(c2ccccc2)N1 [Phenytoin (Lepitoin)] | -0.00211
N[C@@H](Cc1cc(I)c(Oc2cc(I)c(O)c(I)c2)c(I)c1)C(=O)O [L-Thyroxine] | 0.59
CC(C)C(=O)Nc1ccc([N+](=O)[O-])c(C(F)(F)F)c1 [Flutamide (Eulexin)] | -0.25
CC(C)C[C@H](NC(=O)[C@H](CCc1ccccc1)NC(=O)CN1CCOCC1)C(=O)N[C@@H](Cc1ccccc1)C(=O)N[C@@H](CC(C)C)C(=O)[C@@]1(C)CO1 [Carfilzomib (PR-171)] | -7.85
NCCc1c[nH]c2ccc(O)cc12 [Serotonin HCl] | 0.934
CCCc1cc(=O)[nH]c(=S)[nH]1 [Propylthiouracil] | 1.8
Cc1cc(=O)[nH]c(=S)[nH]1 [Methylthiouracil] | -0.22
Cc1cc2c(s1)Nc1ccccc1N=C2N1CCN(C)CC1 [Olanzapine (Zyprexa)] | -0.136
CC1CCc2cc(F)cc3c(=O)c(C(=O)O)cn1c23 (stereo not given) [Flumequine] | 0.782
CN1CCC(=C2c3ccccc3C=Cc3ccccc32)CC1 [Cyproheptadine HCl (Periactin)] | -2.1
COC(=O)Nc1nc2cc(Sc3ccccc3)ccc2[nH]1 [Fenbendazole (Panacur)] | -4.39
N[C@@H](Cc1ccc(O)c(O)c1)C(=O)O [Levodopa (Sinemet)] | 0.296
CCCN[C@H]1CCc2nc(N)sc2C1 [Pramipexole dihydrochloride monohydrate] | -1.08
NS(=O)(=O)c1cc(Cl)c(Cl)c(S(N)(=O)=O)c1 [Dichlorphenamide (Diclofenamide)] | 1.07
